Consider one substance from patent US12599649B2, “Bioactive polypeptides for improvements in plant protection, growth and productivity” (priority 2017, dated 2026).

For this assay, the system named is soybean. The experiment in a line: Soybean yield in Paraguay trials infected with Phakopsora pachyrhizi and Cercospora kikuchii (Example 56). It counts as in vivo.

Consider “RHPP: root hair promoting polypeptide derived from Glycine max (GGIRAAPTGNER; Glycine max)”, for which the “yield increase vs untreated control” value is 294.2 kg/Ha (150 mL/Ha) and 506.8 kg/Ha (300 mL/Ha).
